Experimental data taken from PubChem BioAssay AID686978 (National Center for Advancing Translational Sciences (NCATS), 2013).
Several values for one entry are separate records, joined by “and”; a condition that tells them apart may be missing. Identical values can stand only once. Screen size: about 420,000 compounds; about 64,000 (15%) were called active. Inconclusive means that the source gave no clear call. Such entries were picked first, then a sample of the others. Calls come from the whole dose curve; as a rule, active = well fitted inhibition curve with a large enough effect; inconclusive = small, poorly fitted or top-dose-only effect; inactive = flat fitted curve, though single readings scatter. A potency beside an inconclusive call is a rough fit, not a confirmed value.

test: qHTS for Inhibitors of human tyrosyl-DNA phosphodiesterase 1 (TDP1): qHTS in cells in absence of CPT; settings: DT40 Tdp1-/- hTDP1 cells, no CPT, ATP luminescence, 48 h; activity change, negative = growth inhibition: at 46.2 µM (top of the series); note: nearly all actives have a fitted effect of over 55% in size
In short: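 Chicken DT40 Tdp1-/- cells stably complemented with human TDP1 were seeded at 400 cells/well with DMSO in place of 20 nM camptothecin. After compound pinning, cells grew at least 48 hr at 37 °C; viability read by CellTiter-Glo luminescence.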
% is set by controls: 0 for no effect and ±100 for the full control effect; potency is the fitted concentration of half-maximal effect; tags give direction and shape of the fitted curve.

| SMILES | Potency | activity change, negative = growth inhibition |
| --- | --- | --- |
| COc1cccc(NC(=O)Cc2csc(COc3cccc(C)c3)n2)c1 | inconclusive: 29.1 µM [inhibitor, single point] |  |
| CC(C)(C)C(=O)N1CCN(c2ccc3c(c2)C2CC3CCN2C(=O)OCc2ccccc2)CC1 (stereo not given) | inconclusive: 29.1 µM [inhibitor, single point] |  |
| C=CCNC(=S)Nc1ccc(C(N)=O)cc1 |  | inactive: -4.12% |
| COc1ccc(NC(=O)C2C3C=CC4(O3)C2C(=O)N(CCN2CCCCC2C)C4C(=O)NC2CCCC(C)C2C)cc1 (stereo not given) | inconclusive: 29.1 µM [inhibitor, single point] |  |
| CCOC(=O)c1c(N)n(-c2cc(C)cc(C)c2)c2nc3ccccc3nc12 | inconclusive: 4.11 µM [inhibitor, partial curve] |  |
| Cn1c(=O)n(C)c2cc(S(=O)(=O)NCc3ccccc3)ccc21 | inconclusive: 11.6 µM [inhibitor, partial curve, poor fit] |  |
| Cc1noc(C)c1COc1ccccc1C(=O)NCCc1ccc(S(N)(=O)=O)cc1 |  | inactive: 1.5% |
| COc1ccc(Cc2c(-c3ccc(F)cc3)nc3ccc(Br)cn23)c(C)c1 | inconclusive: 16.4 µM [inhibitor, partial curve] |  |
| O=C(Nc1cc(Cl)cc(Cl)c1)c1cc(S(=O)(=O)N2CCC3(CC2)OCCO3)ccc1F | inconclusive: 23.1 µM [inhibitor, single point] |  |
| O=C1CCCC/C1=C/Nc1ccc2c(c1)OCO2 |  | inactive: -11.7% |
| COc1ccccc1CN1CCC2(CC1)CCN(S(=O)(=O)c1ccccc1)CC2 | inconclusive: 16.4 µM [inhibitor, partial curve, poor fit] |  |
| NS(=O)(=O)c1cccc(NC(=O)COC(=O)CCc2ccccc2)c1 |  | inactive: -5.16% |
| COc1ccc(/C=N/NC(=O)c2ccc3nc[nH]c3c2)cc1OC |  | inactive: 4.82% |
| Cc1ccc(F)cc1NC(=O)N1CCCN(c2ccc(C(F)(F)F)cn2)CC1 | inconclusive: 13 µM [inhibitor, partial curve] |  |
| O=C(/C=C/[C@H]1O[C@@H](n2ccc(=O)[nH]c2=O)[C@H](O)[C@@H]1O)NCCc1c[nH]c2ccccc12 |  | inactive: 27.5% |
| CCOc1ccccc1N1CCN(C(=O)Nc2cccc(Cl)c2)CC1 |  | inconclusive: -30.6% [inhibitor] |
| CCCCNC(=O)C1CCC(=O)N1CCc1ccccc1 (stereo not given) |  | inactive: 0.76% |
| O=S1(=O)CC(N2CCSCC2)CN1Cc1cn(Cc2cccc(C(F)(F)F)c2)nn1 (stereo not given) |  | inactive: -9.7% |
| Cc1ccc(C)c(-n2nnc(C(=O)Nc3ccc(Br)cc3)c2C)c1 | active: 5.17 µM |  |
| O=C(Nc1ccccc1N1CCCCC1)c1cccs1 | inconclusive: 14.6 µM [inhibitor, partial curve] |  |
| COCCn1c(C)cc(O)c(C(c2ccc(OC)cc2)N2CCN(c3ccccc3)CC2)c1=O (stereo not given) |  | inactive: 2.65% |
| CC(C)Oc1ccc(/C=N/NC(=O)c2nnn(-c3nonc3N)c2CN(C)c2ccccc2)cc1 | inconclusive: 29.1 µM [inhibitor, single point] |  |
| CCCCC1(COC(=O)CCC(=O)O)C(=O)N(c2ccccc2)N(c2ccccc2)C1=O | inconclusive: 0.0081 µM [inhibitor, full curve, poor fit] |  |
| CCSc1ccc2nnc(-c3cccs3)n2n1 | inconclusive: 8.2 µM [inhibitor, partial curve] |  |

| SMILES | Potency | activity change, negative = growth inhibition |
| --- | --- | --- |
| CCN(CC)C(=O)c1[nH]cnc1C(=O)N[C@@H](CCCCNC(=O)OC(C)(C)C)C(=O)OC(C)(C)C | inconclusive: 29.1 µM [inhibitor, single point] |  |
| COc1cccc(NC(=O)C(NCCC(C)C)c2ccccc2)c1 (stereo not given) | inconclusive: 18.4 µM [inhibitor, single point] |  |
| C=CCn1c(=O)c2ccccc2n2c(SCC(=O)Nc3cc(C)on3)nnc12 | inconclusive: 20.6 µM [inhibitor, single point] |  |
| CCOCCn1c(=O)c2c(nc3n2CCN3c2ccc(C)c(C)c2)n(C)c1=O |  | inactive: -4.71% |
| CCN(CCS(=O)(=O)c1ccc(Cl)cc1)C(=O)Nc1ccc(Cl)cc1 |  | inactive: -24.8% |
| CCN1CCN(c2nc(Nc3cccc(C)c3)nc(N)c2[N+](=O)[O-])CC1 | active: 18.4 µM |  |
| CCOC(=O)C1CCN(CCC(=O)Nc2cccc(Cl)c2)CC1 |  | inactive: -11.4% |
| COc1ncc2nc(-c3ccccc3)c(=O)n(CCC#N)c2n1 |  | inactive: -12.7% |
| O=C(NCC(c1ccco1)N1CCCC1)c1cccc(S(=O)(=O)N2CCOCC2)c1 (stereo not given) |  | inactive: 10.7% |
| CC(=O)NCCc1c(C)n(Cc2ccccc2)c2ccccc12 |  | inactive: -16.9% |
| O=S(=O)(c1cccc(Br)c1)N1CCN(CCc2ccccc2)CC1 | inconclusive: 16.4 µM [inhibitor, single point] |  |
| COc1cccc(-c2nc(CS(=O)(=O)CC(=O)NCCc3ccc(Cl)cc3)c(C)o2)c1 | inconclusive: 18.4 µM [inhibitor, single point] |  |
| Cc1c(C(=O)Nc2ccc(S(=O)(=O)N(C)C3CCN(C)CC3)cc2)oc2ccccc12 | active: 18.4 µM |  |
| CCOC(=O)c1cc(NC(=O)Cc2ccc(S(=O)(=O)N3CCOCC3)s2)cc(C(=O)OCC)c1 | inconclusive: 18.4 µM [inhibitor, single point] |  |
| Cc1ccc(-n2ncc3c(Nc4cccc(C(F)(F)F)c4)ncnc32)cc1C | inconclusive: 29.1 µM [inhibitor, single point] |  |
| COc1ccc(NC(=O)CN(C)S(=O)(=O)c2ccc3c(c2)c(=O)n(C)c(=O)n3C)cc1 | inactive and inconclusive: 14.6 µM [inhibitor, single point] |  |
| O=C(CCc1nc2ccccc2s1)OCC(=O)c1ccc[nH]1 |  | inactive: -2.36% |
| CS(=O)(=O)c1ccc(C(=O)NCc2ccc(F)cc2)cc1 |  | inactive: 0.246% |
| O=C1NC[C@H](Cc2ccc(O)cc2)N(C[C@@H]2CCCN2C[C@H](Cc2ccccc2)N2C[C@H](Cc3ccc(O)cc3)N(CC3CCCCCC3)C(=O)C2=O)C1=O | inconclusive: 29.1 µM [inhibitor, single point] |  |
| COc1ccc(-c2c(-c3ccc(O)cc3O)n[nH]c2C(F)(F)F)cc1 |  | inactive: -24.6% |
| COCCN(C(=O)COC(=O)CCOc1cc(C)ccc1C)c1c(N)n(Cc2ccccc2)c(=O)[nH]c1=O | inconclusive: 16.4 µM [inhibitor, single point] |  |
| CC(C)c1ccc(NC(=O)c2cnc3sc(N4CCOCC4)nn3c2=O)cc1 |  | inactive: -28% |
| C=CCn1c(=NC(=O)c2ccco2)sc2cc(C(=O)OCC)ccc21 | inconclusive: 8.2 µM [inhibitor, partial curve] |  |
| Cc1c(Cl)c([N+](=O)[O-])nn1CCCC(=O)Nc1c(Cl)cccc1Cl |  | inconclusive: -35.9% [inhibitor] |

| SMILES | Potency | activity change, negative = growth inhibition |
| --- | --- | --- |
| O=C(CSc1nc(=O)n2ccccc2n1)NC1CCCCC1 |  | inactive: -1.38% |
| COc1ccc(OCC2c3cc(OC)c(OC)cc3CCN2C(=O)c2c(F)cccc2F)cc1 (stereo not given) | inconclusive: 14.6 µM [inhibitor, single point] |  |
| CCOC(=O)[C@H]1[C@H]2COc3ccc(Cl)cc3[C@@H]2N2C(=O)CN(Cc3ccc(C)cc3)C(=O)[C@@]12C | active: 16.4 µM |  |
| Cc1ccc(S(=O)(=O)N2CCC(NC(=O)c3cccc(C)c3)CC2)cc1 |  | inactive: -16.8% |
| CCOC(=O)c1oc2ccccc2c1COC(=O)C(C)NC(=O)c1ccco1 (stereo not given) | inconclusive: 29.1 µM [inhibitor, single point] |  |
| Cc1ccc(NC(=O)CSCc2cc(=O)n3ccsc3n2)c(C)c1 |  | inactive: 17.5% |
| COc1ccc(-c2nc3ccc(Cl)cn3c2Nc2ccc(C)cc2)cc1 | inconclusive: 23.1 µM [inhibitor, single point] |  |
| O=C(c1ccc(Cl)c(Cl)c1)c1cc(-c2ccccn2)c(N2CCOCC2)s1 | inconclusive: 1.64 µM [inhibitor, full curve, poor fit] |  |
| CC(C)(C)N1C(=O)[C@H]2[C@@H](c3ccc(Br)cc3)N3C(=O)N(c4cccc(F)c4)C(=O)[C@@]3(Cc3ccccc3)[C@H]2C1=O | inconclusive: 16.4 µM [inhibitor, single point] |  |
| COc1ccc(N2CCN(CCCn3c(=S)[nH]c4ncccc4c3=O)CC2)cc1 | inconclusive: 9.2 µM [inhibitor, partial curve, poor fit] |  |
| Cc1ccc(N(Cc2ccc(C(=O)NN=C3CCN(C)CC3)cc2)S(C)(=O)=O)cc1C |  | inactive: -29.8% |
| Cc1c(/C=C/C(=O)c2ccc(C(C)C)cc2)cnn1C | inconclusive: 14.6 µM [inhibitor, single point] |  |
| CC(=O)NC(c1ccccc1)c1nc(-c2ccc(C)c(C)c2)cs1 (stereo not given) | active: 18.4 µM |  |
| CC1(C)CC(NC(=O)c2cccc(F)c2)CC(C)(C)N1 |  | inactive: 25.5% |
| COc1ccc(C(=O)O)cc1NC(=S)NC(=O)Cc1ccc(Cl)cc1 |  | inactive: 17.9% |
| O=C1CCCC2=C1C(c1ccc(Cl)cc1)N=C(Nc1nc3ccccc3o1)N2 (stereo not given) | inconclusive: 14.1 µM [inhibitor, partial curve] |  |
| CCn1c(SCC(=O)NCc2ccc3c(c2)OCO3)nnc1-c1c[nH]c2ccccc12 | inconclusive: 29.1 µM [inhibitor, single point] |  |
| C=CCN1C(=O)/C(=N/n2cnnc2)c2ccccc21 | active: 4.61 µM |  |
| Cc1cccc(NC(=O)CNC(=O)c2cccc(S(=O)(=O)NCc3cccs3)c2)c1C | inconclusive: 29.1 µM [inhibitor, single point] |  |
| CCOC(=O)c1csc(N)n1 |  | inactive: -8.8% |
| COc1ccc(CN2C(=O)C(CC(=O)NCc3cccc4ccccc34)CC(C(=O)N(C(C)C)C(C)C)=C2C)cc1 (stereo not given) | inconclusive: 29.1 µM [inhibitor, single point] |  |
| COC(=O)[C@]1(Cc2ccccc2)N[C@H](c2ccc(-c3ccccc3)cc2)[C@@H]2C(=O)N(C)C(=O)[C@@H]21 | inconclusive: 29.1 µM [inhibitor, single point] |  |
